Results: the RNAGym collection of RNA variant scans (doi:10.1073/pnas.2313332121)
Variants at the floor of the assay are shown more often than the library holds them.

B1: TPR 5TU (parent)
chain: GGAUCUUCUCGAUCUAACAAAAAAGACAAAUCUGCCACAAAGCUUGAGAGCAUCUUCGGAUGCAGAGGCGGCAGCCUUCGGUGGCGCGAUAGCGCCAACGUUCUCAACUAUGACACGCAAAACGCGUGCUCCGUUGAAUGGAGUUUAUCAUG

Variants of: B1
Experiment: polymerase ribozyme fitness, log enrichment relative to wild type (log ratio); higher = more active; in vitro selection for triplet polymerase activity
Summary of the method: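 Mutant libraries were PCR-built and transcribed for each subunit of a heterodimeric triplet polymerase ribozyme and selected for one round in triplicate at −7 °C, frozen, before gel excision of extended constructs and streptavidin-bead capture. Input and output libraries were Illumina-sequenced, keeping genotypes with ≥10 input reads and ≥1 read per output. Fitness is a logarithmic ratio of genotype to wild-type enrichment, in base 2, using inverse-variance-weighted replicate averages.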

Variant | polymerase ribozyme fitness (log ratio)
GGAUCUUCUCGAUUUAACAAAAAAGACUAAUCUGCCCCAAAGCUUGAGAGCAUCUUCGGAUGCAGAGGCGGCAGCCUUCGGUGGCGCGAUAGCGCAAACGUUCUCAACUAUGACACGCGAAACGCGUGCUCCGUUGAAUGGAGUUUAUCAUG [C14U A28U A37C C96A A119G] | ≤ -4.2
GGAUCUUCUCGAUUUAACAAAAAAGACUAAUCUGCCACAAAGCUUGAGAGCAUCUUCGGAUGCAGAGGCGGCAGCCUUCGGUGGCGCGAUAGCGCGAACGUUCUCAACUAUGACACGCAAAACGCGUGCUCCGUUGAAUGGAGUUUAUCAUG [C14U A28U C96G] | ≤ -4.2
GGAUCUUCUCGAUUUAACAAAAAAGACAGAUCUGCCAGAAAGCUUGAGAGCAUCUUCGGAUGCAGAGGCGGCAGCCUUCGGUGGCGAGAUAGCACCAACGUUCUCGACUAUGACACGCAAAACGCGUGCUCCGUUGAAUGGAGUUUAUCAUG [C14U A29G C38G C87A G94A A106G] | ≤ -4.2
GGAUCUUCUCGAUUUAACAAAAAAGACAUAUCUGCCACAAAGCUUGAGAGCAUGUUCGGAUGCAGAGGCGGCAGCCUUCGGUUUCGCGAUAGCGCCAACGUUCUGAACUAUGACACGCAAAACGCGUGCUCCGUUGAAUGGAGUUUAUCAGG [C14U A29U C54G G83U G84U C105G U151G] | ≤ -4.2
GGAUCUUCUCGAUUUAACAAAAAAGACAACUCUGCCACAUAGCUUGCGAGAAUCUUCGGAUGCAGAGGCGGCAGCCUUCGGUGGCGCGAUAGCGCCAACGUUCUCAACUAUGACACGCAAAACACGUGCUCCGUUGAAUGGAGUUUAUCAUG [C14U A30C A40U A47C C51A G124A] | ≤ -4.2
GGAUCUUCUCGAUUUAACAAAAAAGACAAGUCUGCCACCAAGCUUGAGCGCAUCUUCAGAUGCAGAGGCGGCAGCCUUCGGUGGCGCGAUAGCGCAAACGUUCUCCACUAUGACACGCAAAACGCAUGCUCCGUUGAAUGGAGUUUAUCAUG [C14U A30G A39C A49C G58A C96A A106C G126A] | ≤ -4.2
GGAUCUUCUCGAUUUAACAAAAAAGACAAUUCUGCCACCAAGCUUGAGAGCGUCUUCGGAUGCGGAGGCGGCAGCCUUCGGUGGCGCGAUUGCACCAAAGUUCACAACUUUGACACGCAAAACGCGUGCUCCGUUGAAUGGAGUUUAUCAUG [C14U A30U A39C A52G A64G A91U G94A C99A U104A A110U] | ≤ -4.2
GGAUCUUCUCGAUUUAACAAAAAAGACAAAUCUGCCACGAAGCUUGAGAGCAUCAUCGGAUGCAGCGGCGGCAGCCUUCGGUGGCGCGAUAGCGCCAACGUUCUCAACUAUGACAUGCAAAACGCGUGCUCCGUUGAAUGGAGUUUACCAUG [C14U A39G U55A A66C C116U U148C] | ≤ -4.2
GGAUCUUCUCGAUUUAACAAAAAAGACAAAUCUGCCACUAAGCUUGAGAGCAUCUUCGGAUGCAGAGGCGGCAGCCUUCGGUGGCUCGAUAGCGCCAACGUUCUCGACUAUGACACGCAAAACGCGUGCUCCGUUGAAUGGAGUUUAUCAUG [C14U A39U G86U A106G] | ≤ -4.2
GGAUCUUCUCGAUUUAACAAAAAAGACAAAUCUGCCACAUAGCUUGAGAGCAUCUUCGGAUGCAGCGGCGCCAGCCUUCGGUGGCGCGAUAGCGCCAACGUUCUCAACUAUGACACGCAAAACGCGUGCUCCGUUGAAUGGCGUUUAUCAUG [C14U A40U A66C G71C A142C] | ≤ -4.2
GGAUCUUCUCGAUUUAACAAAAAAGACAAAUCUGCCACAUAGCUUGAGAGCAUCUUCGGAUGCAGAGGCGGCAGCCUUCGGUGGCGCAAUAGCGACAACGUUCUCAACUAUGACACGCAAAACGCGUGCUCCGUUGAAUGGAGUUUAUCUUG [C14U A40U G88A C95A A150U] | ≤ -4.2
GGAUCUUCUCGAUUUAACAAAAAAGACAAAUCUGCCACAAAGCUUGAGGGCAUCUUCGGAUGCAGAGGCGGCUGCCUUCGGUGGCGCGGUAGAGCCAACGUUCUCAACUAUGACACGCAAAACGCGUGCUCCGUUGAAUGGAGUUUAUCAUG [C14U A49G A73U A89G C93A] | ≤ -4.2
GGAUCUUCUCGAUUUAACAAAAAAGACAAAUCUGCCACAAAGCUUGAGAGCGUCUCCGGAUGCAGAGGCGGCAGCCUUCGGUGGCGCGAUAGCACCAACGUUCUCAAUUAUGACACGCAAAACGCGUGCUCCGUUGCUUGGAGUUUAUCAUG [C14U A52G U56C G94A C108U A137C A138U] | ≤ -4.2
GGAUCUUCUCGAUUUAACAAAAAAGACAAAUCUGCCACAAAGCUUGAGAGCAUCUUCGGAUGCAGAGGCGGCGGCCUUCGGUGGCGCGAUAGCCCCAACGUUCUCAACUAUGACACGCAAAACGCGUGCUCCGUUGAACGGAGUUUAUCAUG [C14U A73G G94C U139C] | ≤ -4.2
GGAUCUUCUCGAUUUAACAAAAAAGACAAAUCUGCCACAAAGCUUGAGAGCAUCUUCGGAUGCAGAGGCGGCAGCCUUCGGUGGCGCGAUAGCGCCAACGUUCUCAACUAUGACGCGCAAAACGCGUGCUCCGUUGAAUGGAGUUUAUCAUG [C14U A115G] | -2.56
GGAUCUUCUCGAUUUAAGAAAAAAGACAAAUCUGCCACAGAGCUUGAGAGCAUCUUCGGAUGCAGAGGCGGCAACCUUCGGUCGCGCGAUAGCGCCAACGUUCUCAACUAUGACACGCAAAACGCGUGCUCCGUUGAAUGGAGUUUAUCAUG [C14U C18G A40G G74A G83C] | ≤ -4.2
GGAUCUUCUCGAUUUAAUAAAAAAGACAAAUCUGCUACAAAGCUUGAGACCAUCUUCGGAUGCAGAGGCGGCAGCCUUCGGUGGAGCGAUAGCGCCAACGUUCUCAACUAUGACACGCAAAACGCGUGCUCCGUUGAAUGGAGCUUAUCAUG [C14U C18U C36U G50C C85A U144C] | ≤ -4.2
GGAUCUUCUCGAUUUAACAAAAAAGACAAAUAUGCCACAAAGCUUGAGCGCAUCUUCGGAUGCAGAGGCGGCAGCCUUCGGUGGAGCGAUAGCGCCAACGUUCUCAACUAUGACACGCAAAACGCGUGCUCCGUUGAAUGGAGUUUAUCAUG [C14U C32A A49C C85A] | ≤ -4.2
GGAUCUUCUCGAUUUAACAAAAAAGACAAAUGGGCCACAAAGCUUGUGAGCAACUUCGGAUGCAGAGGCGGCAACCUUCGGUGGCGCGAUAGCGGCAACGUUCUCGACUAUGACACGCAAAACGCGUGCUCCGUAGAAUGGAGUUUAUCAUG [C14U C32G U33G A47U U53A G74A C95G A106G U135A] | ≤ -4.2
